These results are taken from PubChem BioAssay AID1347073 (National Center for Advancing Translational Sciences (NCATS), 2019).

Hit rate of the full screen: of about 45,000 compounds, about 200 (0.44%) were called active. Another 7% or so got no clear call; they are omitted. Calls follow the shape of the dose curve; as a rule, active = well fitted activation curve with a large enough effect; inconclusive = small, poorly fitted or top-dose-only effect; inactive = no such curve, though single readings can be large or run the other way. This is one part of the list.

The nature of this assay: qHTS of TDP-43 Inhibitors: NCGC Sytravon Library Screen. Also: 0% is about no effect; nearly all actives have a fitted effect of over 55% in size. Particulars: yeast TDP-43 toxicity rescue, BacTiter-Glo growth, 24 h; series mostly up to 46.1 µM; growth rescue (activation): at the top concentration. In short, it runs like this: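 TDP-43-expressing yeast, pregrown in raffinose, seeded at OD600 0.02 in galactose medium with compound for 24 hr at 30 deg C. Growth read by BacTiter-Glo luminescence, so rescue of toxicity appears as activation.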
Background: In qHTS, concentration-response curves come from the screen itself.
As to `Cc1cccc(C)c1NC(=O)NC1(C(=O)NCc2ccncc2)CCCCC1`, the “growth rescue (activation)” value is inactive: 11.9%. In the case of `CC(=O)c1cccc(-c2cnc3c(NC=O)cc(-c4ccccc4Oc4ccccc4)cn23)c1`, the “growth rescue (activation)” value was inactive: 19.7%.

For `CCNc1ccc(C(=O)OCC(=O)NCc2ccc(C)cc2)cc1[N+](=O)[O-]`, the “growth rescue (activation)” value is inactive: -19.4%.

As for `Cc1cc(=O)[nH]c(N/N=C/c2c(C)nn(-c3ccccc3)c2Cl)n1`, the “growth rescue (activation)” value is inactive: 1.09%. The figure for `CC(Sc1cccc[n+]1[O-])C(=O)Nc1cc(Cl)c(Cl)cc1Cl` (configuration not stated) is inactive: 7.14%; for `COc1cccc(NC(=O)[C@H](C)NC(=O)C2CCN(S(=O)(=O)c3ccc(C)cc3)CC2)c1` it is inactive: 15.1%; for `CCOc1cc(CNc2cccc3[nH]c(C)nc23)ccc1OC` it is inactive: 10.8%.

Turning to `CCOc1ccc(CN2CCNC(=O)C2CC(=O)NCc2csc(C)n2)cc1` (configuration not stated), the “growth rescue (activation)” value is inactive: -18.3%. For the compound `O=C(CNC(=O)c1cccc(OC(F)F)c1)OCn1nnc2ccccc2c1=O`, the “growth rescue (activation)” value was inactive: 5.25%. In the case of `Cc1cc(C)c(C)c(S(=O)(=O)N2CCN(C)CC2)c1C`, the “growth rescue (activation)” value was inactive: -1.39%. Turning to `COc1ccc(CC(=O)Nc2ccc3nc(SC)sc3c2)cc1OC`, the “growth rescue (activation)” value was inactive: 16.1%. Under `O=C(Cn1cnnn1)NCCc1ccc(Cl)cc1Cl` stands inactive: 10.7%; under `O=C(CC1C(=O)NCCN1Cc1c(F)cccc1Cl)NCCCn1ccnc1` (configuration not stated), inactive: 9.03%.

For `O=C(CCSc1nnc2ccccn12)Nc1ccc2c(c1)OCO2`, the “growth rescue (activation)” value was inactive: 3.66%. The figure for `CC(C)N(c1ccccc1)c1ccc(NC(=O)[C@@H]2O[C@H](CO)[C@H](O)[C@H](O)[C@H]2O)cc1` is inactive: -3.2%; for `CCCc1cc(C(=O)Nc2ccc(F)c(Cl)c2)no1` it is inactive: 3.39%. The figure for `Cn1c(CNC(=O)c2ccco2)nnc1SCC(=O)N1CCN(c2ccccc2F)CC1` is inactive: -6.25%; for `Cc1ccc(NC(=O)CN(C)C(=O)Cc2ccccc2F)cc1` it is inactive: 20.3%. Under `COc1ccc(-c2noc(CCC(=O)NC3CCCC3)n2)cc1` stands inactive: 16.8%; under `CCOC(=O)N1CCC(NC(=O)c2cc(COc3ccc(F)cc3Cl)on2)CC1`, inactive: 10.9%; under `Cn1c(SCC(=O)Nc2ccc(NC(=O)c3cccc(F)c3)cc2)nnc1-c1ccncc1`, inactive: 12%. For `O=C(O)CN1CCN(c2ncc(C(F)(F)F)cc2Cl)CC1`, the “growth rescue (activation)” value was inactive: -0.177%. On to `COc1ccc(/C=N/NC(=O)c2ccc(CSc3nc(C)cc(C)n3)cc2)c(OC)c1OC`, for which the “growth rescue (activation)” value was inactive: 17.3%.

Take `OCCC1CN(Cc2ccn[nH]2)CCN1Cc1ccc(F)c(F)c1` (configuration not stated): the “growth rescue (activation)” value is inactive: 9.62%. The figure for `CCC1=NNC(=O)C(CC(=O)Nc2ccccc2)c2cc(OC)c(OC)cc21` (configuration not stated) is inactive: -1.42%; for `Cc1ccc(F)cc1NC(=O)c1cnccn1` it is inactive: 13.2%; for `CNc1ncc(C(=O)c2ccc(Br)cc2)s1` it is inactive: 12%. As to `Cc1ccc(OCc2nnc(SC(C)C(=O)O)n2-c2ccccc2)cc1` (configuration not stated), the “growth rescue (activation)” value is inactive: 4.43%. Regarding `CCC(C)CN1CCC(CO)(Cc2ccccc2Cl)CC1` (configuration not stated), the “growth rescue (activation)” value was inactive: 6.45%. In the case of `Cc1nnc(SCC(=O)NCC2CCCCC2)n(N)c1=O`, the “growth rescue (activation)” value is inactive: 0.216%. Under `Cc1nc2ccccc2c(=O)n1/N=C/c1c(O)ccc2ccccc12` stands inactive: -15.5%; under `COc1ccccc1/C=C/C(=O)NCC(=O)N/N=C(/C)c1ccco1`, inactive: 8.91%; under `Cc1ccc(/C=C/C(=O)NCc2cccs2)c(C)c1`, inactive: 6.9%. The figure for `O=C(CSc1ncnc2[nH]ncc12)Nc1cccc(Oc2ccccc2)c1` is inactive: 9.49%; for `COc1ccccc1NC(=O)COC(=O)C1CC1` it is inactive: 9.62%; for `Cc1ccc(NC2CCCN(C(=O)CSc3ccccn3)C2)cc1C` (configuration not stated) it is inactive: -2.71%. The figure for `COc1ccc(CCNC(=O)COC(=O)C2CC2)cc1` is inactive: 10.7%; for `COc1cccc(C(C(=O)NC2CCCC2)N(CC2CCCO2)C(=O)Cc2cccs2)c1` (configuration not stated) it is inactive: 17.3%. As for `COc1ccc(S(=O)(=O)N2CCCCCC2)cc1NC(=O)c1ccccc1S(C)(=O)=O`, the “growth rescue (activation)” value is inactive: 18.8%. Under `O=C(Nc1ccc2ccccc2c1)c1ccccc1O` stands inactive: 10.7%; under `CC[n+]1c(/C=C/c2c[nH]c3ccccc23)ccc2cc(C)ccc21`, inactive: -15.7%. `CC(C)C(=O)N1CCN(c2ccc(NC(=O)COc3ccccc3[N+](=O)[O-])cc2)CC1`: the “growth rescue (activation)” value is inactive: -5.09%. Under `CCN(CC)C(=O)C1CCCN(c2ccccc2[N+](=O)[O-])C1` (configuration not stated) stands inactive: 2.83%; under `Cc1ccc(NS(=O)(=O)c2ccc(C(=O)Nc3nncs3)cc2)cc1`, inactive: 9.42%. The figure for `Cc1nn(-c2ccccc2)c(Cl)c1/C=N/NC(=O)c1ccc(CNc2ccccc2)o1` is inactive: 4.68%; for `CC(=O)Nc1ccc(Nc2nc(C)nc3c2nnn3Cc2ccccc2Cl)cc1` it is inactive: -24.8%; for `CCOC(=O)N1CCN(C(=O)CNC(=O)c2ccccc2F)CC1` it is inactive: 16.4%. Under `COc1cc(NC(=O)CCCNC(=O)c2ccc(Cl)cc2)cc(OC)c1` stands inactive: 13.3%; under `O=c1cc[nH]c2c1ccc1c(=O)cc[nH]c12`, inactive: 9.16%. In the case of `CC(C)OC(=O)c1ccccc1C(=O)c1ccc(N)c([N+](=O)[O-])c1`, the “growth rescue (activation)” value was inactive: 11.7%. On to `CC1(C(=O)NS(=O)(=O)c2ccccc2)CCN1C(=O)Cc1ccccc1` (configuration not stated), for which the “growth rescue (activation)” value is inactive: 4.1%.

For the compound `COc1ccc(C2(c3ccc(OC)cc3)NC(=O)N(CC(=O)Nc3ccccc3)C2=O)cc1`, the “growth rescue (activation)” value was inactive: 11.4%. Under `Cc1cc(Br)c(NC(=O)CN2CCCC2)c(Br)c1` stands inactive: 4.42%; under `CC(C)OC(=O)c1cccc(C(=O)Nc2cccc(NC(=O)c3cccc(C(=O)OC(C)C)n3)n2)n1`, inactive: -10.2%; under `COC(=O)C1=C(C)NC(C)=C(C(=O)OC)C1C(=O)OCC(=O)N1c2ccccc2CC1C` (configuration not stated), inactive: -5.68%. The figure for `CCN(CC(=O)NCc1cccs1)C(=O)c1ccc(C)o1` is inactive: -3.22%; for `CCC(=O)N1CCC1(C)C(=O)Nc1ncc(C)s1` (configuration not stated) it is inactive: -4.28%; for `CCCCNC(=O)c1ccc(/C=C2\Oc3ccccc3N(C)C2=O)cc1` it is inactive: 0.907%. The figure for `CCc1nc2c(OCCc3cccc(OC)c3)cccn2c1N(C)C(=O)c1ccc(OC)cc1` is inactive: -5.99%; for `O=c1[nH]c2ccccc2cc1CN(CC1CCCO1)S(=O)(=O)c1ccc(Cl)cc1` (configuration not stated) it is inactive: 4.52%.

`CC1=C(C(=O)OCc2ccccc2)C(c2cccs2)N2C(=O)CCSC2=N1` (configuration not stated): the “growth rescue (activation)” value is inactive: 2.83%. For `CC(=O)c1ccc(OCC(C)C)c(Cc2c(O)nc(N)[nH]c2=O)c1`, the “growth rescue (activation)” value is inactive: 4.51%. Under `CCOc1ccc2nc(SCC(=O)N3c4ccccc4Sc4ccccc43)c(C#N)cc2c1` stands inactive: -4.24%; under `O=C(CSc1ncnc2c1oc1ccccc12)c1cccs1`, inactive: 17.6%; under `CCc1cc2ccccc2nc1SCC(=O)NC1CCCC1`, inactive: 8.89%. The figure for `Cc1cc(C)n2nc(SCc3ccccc3F)nc2n1` is inactive: 28.8%; for `CC(C)(C)C1CCC(OC(=O)C[N+]2(C)CCCCC2)CC1` (configuration not stated) it is inactive: 6.61%; for `COc1ccc(Cl)cc1NC(=O)CCN1CCOCC1` it is inactive: 5.51%. With `CCc1ccccc1NC(=O)N1CCC2(CC1)Oc1ccccc1C(=O)N2Cc1ccccc1F`, the “growth rescue (activation)” value is inactive: 2.3%. The figure for `COc1cc(-c2nnc(CSc3nnc(Nc4ccc(Oc5ccccc5)cc4)s3)o2)cc(OC)c1OC` is inactive: 13.7%.

Turning to `CCCCN(CC)CCNC(=O)CCNC(=O)Cn1ccc2ccccc2c1=O`, the “growth rescue (activation)” value was inactive: 8.03%. Under `CCN(c1ccccc1)S(=O)(=O)c1ccc(Cl)c(NC(=O)CNC(C)c2ccccc2)c1` (configuration not stated) stands inactive: 12.1%; under `COc1cc(/C=C/C(=O)N2CCN(CC(O)COc3ccccc3)CC2)cc(OC)c1OC` (configuration not stated), inactive: 10.6%; under `COc1cc(CCC(=O)OCC(=O)Nc2cccc(S(N)(=O)=O)c2)cc(OC)c1OC`, inactive: 9.03%. Consider `O=C(COC(=O)Cn1cnc2ccccc21)NCCCc1ccccc1`, for which the “growth rescue (activation)” value is inactive: 8.49%. On to `COc1ccc(NC(=O)CCNC(=O)Cn2cnc3sc4c(c3c2=O)CCCC4)cc1OC`, for which the “growth rescue (activation)” value was inactive: 10.7%. For the compound `Cc1cc(CN(C)C(=O)CC2C(=O)NCCN2Cc2c(F)cccc2Cl)n[nH]1` (configuration not stated), the “growth rescue (activation)” value is inactive: -14.8%.

As for `Cn1c(CO)cnc1SCC(=O)c1ccc(Cl)cc1`, the “growth rescue (activation)” value was inactive: 0.442%. As to `Cc1ccc(C)c(NC(=S)N(C)CCc2ccccn2)c1`, the “growth rescue (activation)” value is inactive: 9.03%. Consider `Cc1c(C(=O)NCCNc2ncc(C(F)(F)F)cc2Cl)cccc1[N+](=O)[O-]`, for which the “growth rescue (activation)” value was inactive: 14.7%. Under `Cc1cc(O)ccc1NC(=O)CCN1C(=O)c2ccc([N+](=O)[O-])cc2C1=O` stands inactive: 4.77%; under `CCOc1ccc(OCC)c(NC(=O)CSCCc2ccccn2)c1`, inactive: 6.19%.

With `Cc1cc(C)c2[nH]c(=O)c(CN(Cc3cccs3)C(=S)NCC3CCCO3)cc2c1` (configuration not stated), the “growth rescue (activation)” value was inactive: 2.9%. With `CCCNC(=O)C1(C)CCCN(Cc2noc(-c3c(C)noc3C)n2)C1` (configuration not stated), the “growth rescue (activation)” value was inactive: 4.13%. In the case of `O=C(CN(Cc1ccccc1)C(=O)CCC(=O)Nc1ccccn1)NCCc1ccccc1`, the “growth rescue (activation)” value is inactive: 9.46%.

For `Cc1cccc(OCC(=O)Nc2cccc(C(=O)Nc3ccccc3C(=O)O)c2)c1`, the “growth rescue (activation)” value is inactive: -29.6%. Under `Cc1cccc(OCCCCCN2CCOCC2)c1C` stands inactive: 5.03%; under `COc1ccccc1N(CC(=O)NCc1ccc(F)cc1)C(=O)CCC(=O)Nc1ccccn1`, inactive: 0.543%; under `CCNC(=O)CC1C(=O)N(CC)C(=S)N1NC(=O)c1cccnc1` (configuration not stated), inactive: 5.9%. `Clc1ccc(CON/C=N/c2ncnc3sccc23)c(Cl)c1`: the “growth rescue (activation)” value is inactive: -3.14%. With `Cc1no[n+]([O-])c1COc1ccccc1/C=N/n1nnnc1N`, the “growth rescue (activation)” value was inactive: 15.3%. Under `C=CC[C@H]1Cc2c(cccc2[N+](=O)[O-])[C@H](CC=C)N1` stands inactive: -1.03%; under `COc1ccc(-n2cnc3sc4c(c3c2=O)CCCC4)cc1`, inactive: 25.9%; under `CCCCN(CCCC)C(=O)CSc1nnc2n(C)c(=O)c3c4c(sc3n12)CCCC4`, inactive: -11.1%. The figure for `Cc1ccc(C(=O)N2CCOCC2)cc1S(=O)(=O)N1CCCCC1` is inactive: 9.22%. With `CCOC(=O)CC(NC(=O)CCc1c(C)nc2nc(C)nn2c1C)c1ccc(OC(C)C)cc1` (configuration not stated), the “growth rescue (activation)” value is inactive: -2.11%.

As for `CSC(=NC#N)N1CCN(C(=NC#N)SC)CC1`, the “growth rescue (activation)” value was inactive: -9.66%.

In the case of `O=C(O)CN1CCN(Cc2cccc(Cl)c2)C1=O`, the “growth rescue (activation)” value was inactive: 1.59%.

`Cc1cccc(-c2cccc(NC(=O)C3CCCN(Cc4cccnc4)C3)c2)c1` (configuration not stated): the “growth rescue (activation)” value was inactive: -7.3%. As for `COc1ccccc1NCC(=O)c1ccc(Cl)cc1`, the “growth rescue (activation)” value was inactive: -1.36%. The figure for `CC1CN(C(=S)SCC(=O)c2ccc(Cl)cc2)CC(C)O1` (configuration not stated) is inactive: 35.1%; for `CC1(C)CC(=O)C(=Cc2cn(-c3ccccc3)nc2-c2ccc(Cl)cc2)C(=O)C1` it is inactive: -3.02%. For `Cc1ccc2nc(/N=C(\N)NC(=O)NC3CCCCC3)nc(C)c2c1`, the “growth rescue (activation)” value was inactive: 11%. The figure for `COc1cc(/C=C2/NC(=O)N(Cc3ccccc3F)C2=O)ccc1Oc1ccc([N+](=O)[O-])cn1` is inactive: 10.5%. The figure for `COc1cc(Nc2c3c(nc4ccccc24)CCCC3)cc(OC)c1OC` is inactive: 3.35%; for `Cc1cc(Cl)cc(Cl)c1CNc1c([N+](=O)[O-])c(=O)oc2ccccc12` it is inactive: -1.05%. For `NC(N)=NN=C1CCCCCCCCCCC1`, the “growth rescue (activation)” value was inactive: 7.16%.
